Positions count from the first letter of the chain named. This is one part of the list.

Our source for the binding signal values is article PMC9911399, “Two distinct binding modes provide the RNA-binding protein RbFox with extraordinary sequence specificity”.

T1: RBFOX1 RRM (Homo sapiens, UniProt Q9NWB1 109-208)
T1 sequence: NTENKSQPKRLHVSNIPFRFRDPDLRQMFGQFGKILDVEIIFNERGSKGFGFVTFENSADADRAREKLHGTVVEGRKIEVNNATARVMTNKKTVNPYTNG

B1: CCCCCGU (DNA:RNA)
RNA: GGGAGACCGGAAUUCAGAUUGUCCCCCCCGUUUAAAUCCCGUCGUAGCCACCA
DNA 1: CAATCTGAATTCCGGTCTCCC
DNA 2: TGGTGGCTACGACGGGATT
B2: AACCCCG (DNA:RNA)
RNA: B1 RNA with C25A, C26A, G30C, U31G
DNA 1: CAATCTGAATTCCGGTCTCCC
DNA 2: TGGTGGCTACGACGGGATT
B3: UCUUCUG (DNA:RNA)
RNA: B1 RNA with C25U, C27U, C28U, G30U, U31G
DNA 1: CAATCTGAATTCCGGTCTCCC
DNA 2: TGGTGGCTACGACGGGATT
B4: UGCGGUG (DNA:RNA)
RNA: B1 RNA with C25U, C26G, C28G, C29G, G30U, U31G
DNA 1: CAATCTGAATTCCGGTCTCCC
DNA 2: TGGTGGCTACGACGGGATT
B5: CUGCGCG (DNA:RNA)
RNA: B1 RNA with C26U, C27G, C29G, G30C, U31G
DNA 1: CAATCTGAATTCCGGTCTCCC
DNA 2: TGGTGGCTACGACGGGATT
B6: UCAGCAA (DNA:RNA)
RNA: B1 RNA with C25U, C27A, C28G, G30A, U31A
DNA 1: CAATCTGAATTCCGGTCTCCC
DNA 2: TGGTGGCTACGACGGGATT
B7: GUACUUU (DNA:RNA)
RNA: B1 RNA with C25G, C26U, C27A, C29U, G30U
DNA 1: CAATCTGAATTCCGGTCTCCC
DNA 2: TGGTGGCTACGACGGGATT
B8: CAUGAGC (DNA:RNA)
RNA: B1 RNA with C26A, C27U, C28G, C29A, U31C
DNA 1: CAATCTGAATTCCGGTCTCCC
DNA 2: TGGTGGCTACGACGGGATT
B9: CGUCCCG (DNA:RNA)
RNA: B1 RNA with C26G, C27U, G30C, U31G
DNA 1: CAATCTGAATTCCGGTCTCCC
DNA 2: TGGTGGCTACGACGGGATT
B10: UCUCGAU (DNA:RNA)
RNA: B1 RNA with C25U, C27U, C29G, G30A
DNA 1: CAATCTGAATTCCGGTCTCCC
DNA 2: TGGTGGCTACGACGGGATT
B11: UUCGCUU (DNA:RNA)
RNA: B1 RNA with C25U, C26U, C28G, G30U
DNA 1: CAATCTGAATTCCGGTCTCCC
DNA 2: TGGTGGCTACGACGGGATT
B12: AGGGGAA (DNA:RNA)
RNA: GGGAGACCGGAAUUCAGAUUGUCCAGGGGAAUUAAAUCCCGUCGUAGCCACCA
DNA 1: CAATCTGAATTCCGGTCTCCC
DNA 2: TGGTGGCTACGACGGGATT
B13: UGUCAGC (DNA:RNA)
RNA: B1 RNA with C25U, C26G, C27U, C29A, U31C
DNA 1: CAATCTGAATTCCGGTCTCCC
DNA 2: TGGTGGCTACGACGGGATT
B14: AGGCGCC (DNA:RNA)
RNA: B12 RNA with G28C, A30C, A31C
DNA 1: CAATCTGAATTCCGGTCTCCC
DNA 2: TGGTGGCTACGACGGGATT
B15: ACACCAU (DNA:RNA)
RNA: B1 RNA with C25A, C27A, G30A
DNA 1: CAATCTGAATTCCGGTCTCCC
DNA 2: TGGTGGCTACGACGGGATT
B16: CGUCCAG (DNA:RNA)
RNA: B1 RNA with C26G, C27U, G30A, U31G
DNA 1: CAATCTGAATTCCGGTCTCCC
DNA 2: TGGTGGCTACGACGGGATT
B17: CGGGACC (DNA:RNA)
RNA: B12 RNA with A25C, G29A, A30C, A31C
DNA 1: CAATCTGAATTCCGGTCTCCC
DNA 2: TGGTGGCTACGACGGGATT
B18: UAUCUGA (DNA:RNA)
RNA: B1 RNA with C25U, C26A, C27U, C29U, U31A
DNA 1: CAATCTGAATTCCGGTCTCCC
DNA 2: TGGTGGCTACGACGGGATT
B19: CCAACUU (DNA:RNA)
RNA: B1 RNA with C27A, C28A, G30U
DNA 1: CAATCTGAATTCCGGTCTCCC
DNA 2: TGGTGGCTACGACGGGATT
B20: ACCUUUU (DNA:RNA)
RNA: B1 RNA with C25A, C28U, C29U, G30U
DNA 1: CAATCTGAATTCCGGTCTCCC
DNA 2: TGGTGGCTACGACGGGATT
B21: AAGGUCA (DNA:RNA)
RNA: B12 RNA with G26A, G29U, A30C
DNA 1: CAATCTGAATTCCGGTCTCCC
DNA 2: TGGTGGCTACGACGGGATT
B22: UCCGAAC (DNA:RNA)
RNA: B12 RNA with A25U, G26C, G27C, G29A, A31C
DNA 1: CAATCTGAATTCCGGTCTCCC
DNA 2: TGGTGGCTACGACGGGATT
B23: UAUGUUC (DNA:RNA)
RNA: B12 RNA with A25U, G26A, G27U, G29U, A30U, A31C
DNA 1: CAATCTGAATTCCGGTCTCCC
DNA 2: TGGTGGCTACGACGGGATT
B24: CCGGUAG (DNA:RNA)
RNA: B12 RNA with A25C, G26C, G29U, A31G
DNA 1: CAATCTGAATTCCGGTCTCCC
DNA 2: TGGTGGCTACGACGGGATT
B25: GAUCAAC (DNA:RNA)
RNA: B12 RNA with A25G, G26A, G27U, G28C, G29A, A31C
DNA 1: CAATCTGAATTCCGGTCTCCC
DNA 2: TGGTGGCTACGACGGGATT
B26: CAUAACG (DNA:RNA)
RNA: B1 RNA with C26A, C27U, C28A, C29A, G30C, U31G
DNA 1: CAATCTGAATTCCGGTCTCCC
DNA 2: TGGTGGCTACGACGGGATT
B27: GAGCACA (DNA:RNA)
RNA: B12 RNA with A25G, G26A, G28C, G29A, A30C
DNA 1: CAATCTGAATTCCGGTCTCCC
DNA 2: TGGTGGCTACGACGGGATT
B28: CUUUCAA (DNA:RNA)
RNA: B12 RNA with A25C, G26U, G27U, G28U, G29C
DNA 1: CAATCTGAATTCCGGTCTCCC
DNA 2: TGGTGGCTACGACGGGATT
B29: UGAAACU (DNA:RNA)
RNA: B12 RNA with A25U, G27A, G28A, G29A, A30C, A31U
DNA 1: CAATCTGAATTCCGGTCTCCC
DNA 2: TGGTGGCTACGACGGGATT
B30: GUGCUCG (DNA:RNA)
RNA: B12 RNA with A25G, G26U, G28C, G29U, A30C, A31G
DNA 1: CAATCTGAATTCCGGTCTCCC
DNA 2: TGGTGGCTACGACGGGATT
B31: GUUUGCA (DNA:RNA)
RNA: B12 RNA with A25G, G26U, G27U, G28U, A30C
DNA 1: CAATCTGAATTCCGGTCTCCC
DNA 2: TGGTGGCTACGACGGGATT

The target of this assay is T1, RBFOX1 RRM. Briefly: EMSA; HiTS-Eq, 1 nM pool, 10 min; buffer printed only for the single-RNA assays: 10 mM Tris pH 7.5, 150 mM NaCl, 3.4 mM EDTA, 0.001% NP-40, 30 C. To be noted: tags: His6 N-terminal (pET28a); label: 5' 32P. An outline of the steps: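 Purified RbFox RRM (wild type or mutant) was equilibrated for 10 min in 50 µL with 1 nM of a 5′-radiolabelled pool of RNA with 7 randomized nucleotides, its flanks annealed to DNA oligonucleotides, across increasing protein concentrations. Free RNA was separated by 8% native PAGE, excised, reverse-transcribed, PCR-barcoded and sequenced on an Illumina HiSeq 2500. Relative association constants came from read-count changes of each variant against the control reaction, normalised to the cognate motif.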
As to B1, the binding signal is 0.00315 KA relative to UGCAUGU.

Regarding B2, the binding signal is 0.000539 KA relative to UGCAUGU.

Turning to B3, the binding signal was 0.0205 KA relative to UGCAUGU.

For the molecule B4, the binding signal was 0.0288 KA relative to UGCAUGU.

For the molecule B5, the binding signal was 0.0252 KA relative to UGCAUGU.

For the molecule B6, the binding signal was 0.00519 KA relative to UGCAUGU.

B7: the binding signal is 0.00869 KA relative to UGCAUGU.

Consider B8, for which the binding signal was 0.00651 KA relative to UGCAUGU.

Regarding B9, the binding signal is 0.00671 KA relative to UGCAUGU.

On to B10, for which the binding signal was 0.00854 KA relative to UGCAUGU.

With B11, the binding signal is 0.0144 KA relative to UGCAUGU.

B12: the binding signal is 0.0151 KA relative to UGCAUGU.

Take B13: the binding signal was 0.0124 KA relative to UGCAUGU.

Regarding B14, the binding signal is 0.00888 KA relative to UGCAUGU.

Consider B15, for which the binding signal is 0.00112 KA relative to UGCAUGU.

As to B16, the binding signal is 0.00503 KA relative to UGCAUGU.

With B17, the binding signal was 0.0165 KA relative to UGCAUGU.

For the molecule B18, the binding signal was 0.0166 KA relative to UGCAUGU.

For B19, the binding signal was 0.000894 KA relative to UGCAUGU.

On to B20, for which the binding signal is 0.00337 KA relative to UGCAUGU.

B21: the binding signal was 0.00771 KA relative to UGCAUGU.

Regarding B22, the binding signal was 0.00827 KA relative to UGCAUGU.

B23: the binding signal is 0.0147 KA relative to UGCAUGU.

Regarding B24, the binding signal was 0.0144 KA relative to UGCAUGU.

Regarding B25, the binding signal was 0.00262 KA relative to UGCAUGU.

As to B26, the binding signal was 0.00316 KA relative to UGCAUGU.

For B27, the binding signal was 0.0116 KA relative to UGCAUGU.

B28: the binding signal is 0.00675 KA relative to UGCAUGU.

For the molecule B29, the binding signal is 0.0109 KA relative to UGCAUGU.

For B30, the binding signal is 0.0432 KA relative to UGCAUGU.

On to B31, for which the binding signal was 0.0261 KA relative to UGCAUGU.
